# This is one part of the list. Each Rep nickase domain was tested in vitro on the same pool of single strands (1 h at 37 °C, 3 µM enzyme); the outer parts of the 90-letter strands are left off. A value is the log2 ratio of uncut reads to the pool without enzyme; more negative means more cut, near 0 not cut, and no call is made. Reads are scaled to the total, so uncut sequences can rise above 0 when many others are cut.
# Tested on: T1, Rep nickase domain of tomato golden mosaic virus
# T1 sequence (protein, residues 1-124, tag omitted): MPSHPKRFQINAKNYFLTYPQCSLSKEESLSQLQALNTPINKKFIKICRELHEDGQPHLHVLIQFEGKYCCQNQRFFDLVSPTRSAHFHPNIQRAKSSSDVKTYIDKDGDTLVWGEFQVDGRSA
# Assay: uncleaved DNA left, log2 of reads against the no-enzyme library (log2 ratio); higher = less cleavage (more negative = more Rep cleavage of the k-mer); sequences stand for … in CTCGTCCG…ACCGGAGA
# Procedure: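 A pool of 90-nt single-stranded DNAs with seven random bases just before the constant AC of the nick site (name = the seven bases) was cut by 3 µM recombinant His6-SUMO-tagged Rep nickase domain (300 nM DNA, 50 mM HEPES pH 8.0, 50 mM NaCl, 1 mM MnCl2, 1 h, 37 °C, three replicates). Uncut DNA was amplified and sequenced.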
row,Sequence,uncleaved DNA left (log2)
1,GTTTTAC,0.0785
2,CCAGGCA,0.104
3,CACCCAT,-0.233
4,TACCAAA,-0.0172
5,GGCGTGA,0.00834
6,ATCAAAG,0.0242
7,TGCTCTC,-0.0783
8,GACCGGT,-0.00381
9,TACATAG,-0.0873
10,GTAGACT,-0.0197
11,AGCCATC,-0.0728
12,TAAAATC,-0.121
13,AGAAGCG,0.0642
14,CTGGGTT,0.0948
15,CTTCCAT,-0.148
16,TGCCCAG,0.00619
17,CTCCATT,-0.116
18,AAAAAAT,-0.0726
19,GAAACTG,0.0166
20,TCCCTTG,-0.117

row,Sequence,uncleaved DNA left (log2)
1,CGATCTG,-0.108
2,CTCAAGT,0.0164
3,AACCCTA,-0.00579
4,AACCAAA,-0.014
5,ATCTCTG,-0.0957
6,TAATCGC,-2.86
7,CTATCAT,0.1
8,GTTAATT,0.0835
9,AGTCTGT,0.103
10,GCCGCTT,0.115
11,TGGTGCC,-0.114
12,GCGCTAA,0.0393
13,GTCGCGA,-0.00119
14,GATACGA,0.0799
15,AGGAACT,0.0717
16,CAGCCAA,-0.0457
17,GGCCAGT,0.0545
18,CCAAACG,-0.0687
19,AACTCAG,0.0259
20,TCACTAG,-0.0347

# — the supplement of paper PMC7826260
